According to PubChem BioAssay AID504332 (National Center for Advancing Translational Sciences (NCATS), 2011):
Among all 350,000 compounds or so, about 31,000 (8.9%) were called active. Inconclusive results, whose numbers are uncertain, are shown with a selection of clear calls. The call rests on the fitted dose curve; in most records, active means well fitted inhibition curve with a large enough effect; inconclusive means small, poorly fitted or top-dose-only effect; inactive means no such curve, though single readings can be large or run the other way. A potency beside an inconclusive call is a rough fit, not a confirmed value.

The compounds below were run against Histone-lysine N-methyltransferase EHMT2 (Homo sapiens) (UniProt Q96KQ7) (assay: qHTS Assay for Inhibitors of Histone Lysine Methyltransferase G9a). Details: G9a H3K9 monomethylation, AlphaScreen, 2 h; activity, negative = inhibition: at 59 µM (top of the series) unless noted.
Procedure, shortened: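 Enzyme 20 nM + cpd, 15 min RT; add b-H3K9 pep 500 nM / SAM 20 uM; 2 h RT; anti-H3K9me1 Ab 0.5 ug/mL + SA donor / anti-rabbit acceptor beads 20 ug/mL each, 10 min; AlphaScreen read.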
Further: nearly all actives have a fitted effect of over 75% in size.
On the % scale 0 is the no-effect control and ±100 the full control effect; potency means the concentration at half of the fitted maximal effect; tags describe the fitted curve by direction and shape.

Sequence of UniProt Q96KQ7 (Q96KQ7 whole entry, looked up): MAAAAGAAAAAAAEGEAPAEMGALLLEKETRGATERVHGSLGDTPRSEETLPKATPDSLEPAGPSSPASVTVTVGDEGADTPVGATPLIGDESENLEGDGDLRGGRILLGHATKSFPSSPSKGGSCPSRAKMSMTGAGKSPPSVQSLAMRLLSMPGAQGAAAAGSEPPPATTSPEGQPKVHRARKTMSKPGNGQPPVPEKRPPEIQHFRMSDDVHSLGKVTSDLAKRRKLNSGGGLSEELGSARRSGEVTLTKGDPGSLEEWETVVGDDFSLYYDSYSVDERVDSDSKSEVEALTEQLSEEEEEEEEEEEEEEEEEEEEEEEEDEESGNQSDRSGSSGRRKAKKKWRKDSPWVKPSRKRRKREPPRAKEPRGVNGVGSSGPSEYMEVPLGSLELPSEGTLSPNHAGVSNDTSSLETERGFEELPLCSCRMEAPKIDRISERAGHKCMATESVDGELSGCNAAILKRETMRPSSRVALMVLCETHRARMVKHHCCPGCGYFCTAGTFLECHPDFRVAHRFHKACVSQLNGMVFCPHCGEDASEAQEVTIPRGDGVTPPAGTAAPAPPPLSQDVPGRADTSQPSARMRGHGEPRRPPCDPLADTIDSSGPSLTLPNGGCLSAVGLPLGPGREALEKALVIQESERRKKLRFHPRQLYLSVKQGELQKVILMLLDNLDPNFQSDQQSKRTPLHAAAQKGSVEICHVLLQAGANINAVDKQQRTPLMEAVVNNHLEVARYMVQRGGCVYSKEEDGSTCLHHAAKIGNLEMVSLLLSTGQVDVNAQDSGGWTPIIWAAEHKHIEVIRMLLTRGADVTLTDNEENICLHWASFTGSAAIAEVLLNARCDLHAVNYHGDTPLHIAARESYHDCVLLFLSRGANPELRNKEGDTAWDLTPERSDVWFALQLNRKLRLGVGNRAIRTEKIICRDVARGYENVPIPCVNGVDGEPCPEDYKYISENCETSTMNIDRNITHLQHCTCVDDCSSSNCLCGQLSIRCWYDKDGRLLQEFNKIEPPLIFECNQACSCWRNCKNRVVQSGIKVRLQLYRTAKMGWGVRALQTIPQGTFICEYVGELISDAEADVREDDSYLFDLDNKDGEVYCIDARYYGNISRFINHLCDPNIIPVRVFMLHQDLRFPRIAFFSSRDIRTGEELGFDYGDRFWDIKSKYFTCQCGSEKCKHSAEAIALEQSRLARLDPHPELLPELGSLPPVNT

| Compound | Potency | activity, negative = inhibition |
| --- | --- | --- |
| Cc1cccc(C(=O)c2c(N)sc3c2CCCC3)c1 | active: 31.6 µM |  |
| Cc1ccc(NC(=O)Cc2ccc(NC(=O)N3CCCCc4ccccc43)cc2)cc1 |  | inactive: -7.06% |
| CCCOc1ccc(C(=O)C(CN2CCCC2)c2ccccc2)cc1 (centres undefined) | inconclusive: 89.1 µM [inhibitor, single point] |  |
| Cc1ccc(C(C)C)c(OCc2nnc(SCC(=O)Nc3ncc(C)s3)n2C)c1 | inconclusive: 14.1 µM [inhibitor, partial curve, poor fit] |  |
| Cc1cccc(C)c1N1CCN(c2ccc3nnc(C(F)(F)F)n3n2)CC1 | inconclusive: 39.8 µM [inhibitor, single point] |  |
| COc1ccc(NC(=O)c2ccco2)cc1NC(=O)COc1ccc(C)cc1C |  | inactive: -2.35% |
| c1ccc2c(c1)CCc1c(-c3ccncc3)n[nH]c1-2 | inconclusive: 3.16 µM [inhibitor, single point] |  |
| CC1(C)CC(=O)C2=C(C1)Nc1nc(SCCN3CCOCC3)[nH]c(=O)c1C2c1cccs1 (centres undefined) | inconclusive: 39.8 µM [inhibitor, single point] |  |
| C[n+]1cc(-c2ccccc2)oc1-c1ccccc1 | active: 50.1 µM |  |
| CCOC(=O)C1(Cc2ccc(OC)cc2)CCN(C(=O)c2sc(C)nc2C)CC1 | inconclusive: 70.8 µM [inhibitor, single point] |  |
| COc1ccc(NC(=S)NC(=O)c2ccccc2Cl)cc1 | inconclusive: 56.2 µM [inhibitor, partial curve, poor fit] |  |
| O=C1CC(N2CCN(c3ccc(O)cc3)CC2)C(=O)N1c1ccc2c(c1)OCO2 (centres undefined) | active: 15.8 µM |  |
| CCN1CCN(C(c2ccccc2)c2c(O)cc(C)n(CCOC)c2=O)CC1 (centres undefined) | inconclusive: 39.8 µM [inhibitor, single point] |  |
| O=C(CCS(=O)(=O)c1ccc(Br)cc1)Nc1ccc(Br)cc1F | inconclusive: 79.4 µM [inhibitor, single point] |  |
| CCNC(=S)N1CCc2cc(OC)c(OC)cc2C1COc1ccc(OC)cc1 (centres undefined) | active: 50.1 µM |  |
| Cc1ccc(NC(=O)CN2C(=O)S/C(=C\c3cc(Cl)c(OCC(=O)O)c(Cl)c3)C2=O)cc1 | active: 39.8 µM |  |
| O=C(NC(=S)Nc1ccccc1)c1cc(-c2ccccc2)nc2ccccc12 | inconclusive: 5.62 µM [inhibitor, single point] |  |
| O=C(CN1CCCCCC1)Nc1cc([N+](=O)[O-])ccc1Cl | inconclusive: 100 µM [inhibitor, single point] |  |
| CN(Cc1ccco1)c1nc(-c2ccoc2)nc2ccccc12 |  | inactive: 7.51% [at 0.501 µM] |
